{"source": "PubChem BioAssay AID1345082", "about": "(National Center for Advancing Translational Sciences (NCATS), 2018)", "note": "About 4,000 (4.3%) of roughly 94,000 compounds were called active. Inconclusive means that the source gave no clear call. Such entries were picked first, then a sample of the others. Calls come from the whole dose curve; as a rule, active = well fitted inhibition curve with a large enough effect; inconclusive = small, poorly fitted or top-dose-only effect; inactive = no such curve, though single readings can be large or run the other way. Where the call is inconclusive, the potency comes from a doubtful curve fit. % is set by controls: 0 for no effect and ±100 for the full control effect; potency is the fitted concentration of half-maximal effect; tags give direction and shape of the fitted curve."}
{"assay": "Cytotoxic Profiling in NIH 3T3 Cell Line of Diverse Libraries Using Quantitative High-Throughput Screening; note: nearly all actives have a fitted effect of over 55% in size", "details": "NIH 3T3 viability, CellTiter-Glo ATP luminescence, 48-72 h; activity change, negative = cytotoxicity: at 96.7 µM (top of the series) unless noted; series mostly up to 96.7 µM", "outline": "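Luminescent ATP readout (CellTiter-Glo, 10 min RT) after 48 or 72 hr compound exposure of NIH 3T3 cells seeded at 400 cells/well in 1536-well format; quantitative HTS.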"}
{"molecule": "O=C(c1cc(F)ccc1F)N1CCC(n2cc(-c3nc(-c4ccccc4)no3)nn2)CC1", "Potency": "inconclusive: 50.1 µM [inhibitor, partial curve, poor fit]"}
{"molecule": "O=C(COc1ccccc1)NCc1nnc2ccc(-c3ccc(Cl)cc3)nn12", "Potency": "inconclusive: 44.7 µM [inhibitor, partial curve, poor fit]"}
{"molecule": "CN(Cc1cccc(C(F)(F)F)c1)C(=O)c1ccc(F)cc1", "Potency": "inconclusive: 89.1 µM [inhibitor, partial curve, poor fit]"}
{"molecule": "CC1=C[C@@H](CN2CCC[C@H]2CO)[C@H](C(C)C)C[C@H]1Cc1nnc(-c2cncn2C)o1", "Potency": "active: 100 µM"}
{"molecule": "O=C(CC1CCCC1)N1CCC2(CC1)CC(N(Cc1ccccc1)C1CC1)CCO2", "note": "(stereo not drawn)", "Potency": "inconclusive: 50.1 µM [inhibitor, partial curve, poor fit]"}
{"molecule": "CC(C)c1ccc(NC(=O)CN2CCCc3nc(-c4ccncc4)ncc3C2=O)cc1", "activity change, negative = cytotoxicity": "inactive: -25.2%"}
{"molecule": "COCC1CN(C(C)=O)CC12CCN(S(=O)(=O)Cc1ccc(F)cc1)CC2", "note": "(stereo not drawn)", "activity change, negative = cytotoxicity": "inactive: -4.75%"}
{"molecule": "COC(=O)c1ccc2c(c1)nc1n2[C@@H](CNCc2ccc3c(c2)OCO3)COC1", "Potency": "inconclusive: 35.5 µM [inhibitor, partial curve, poor fit]"}
{"molecule": "CNC(=O)[C@H]1CN(C(=O)Nc2ccc3c(c2)OCO3)[C@]2(C)C(=O)N(CCOC)c3ccccc3[C@H]12", "Potency": "inconclusive: 31.6 µM [inhibitor, partial curve]"}
{"molecule": "Cc1nn2c(c1-c1ccccc1C(C)C)N(C(=O)COc1ccccc1C(N)=O)CCC2", "Potency": "inconclusive: 39.8 µM [inhibitor, partial curve, poor fit]"}
{"molecule": "CCN1c2cc(C(=O)Nc3ccc(C)cc3C)ccc2C(=O)N2CCCCCC21", "note": "(stereo not drawn)", "Potency": "inconclusive: 44.7 µM [inhibitor, partial curve, poor fit]"}
{"molecule": "O=C(Cc1ccc(Cl)cc1)NCCNC(=O)c1cccc(-c2ccc(C(F)(F)F)cc2)c1", "Potency": "active: 35.5 µM"}
{"molecule": "O=C(NCc1nnc2ccc(-c3ccc(Cl)cc3)nn12)c1ccc(Cl)s1", "outcome": "inactive"}
{"molecule": "CC(C)NC(=O)C1CCC(=O)N1C1CCN(C(=O)C2CCCCC2)CC1", "note": "(stereo not drawn)", "activity change, negative = cytotoxicity": "inactive: 1.11%"}
{"molecule": "Cc1ccsc1C(=O)N1CCN(c2cc(-c3cccs3)[nH]n2)CC1", "Potency": "inconclusive: 39.8 µM [inhibitor, partial curve]"}
{"molecule": "O=C(c1ccc(Cl)cc1)N1CCC2(CC1)CC(Cc1ccccc1)=NO2", "Potency": "inconclusive: 50.1 µM [inhibitor, partial curve, poor fit]"}
{"molecule": "Cc1cc(S(=O)(=O)N2CCCN(C)c3ccccc32)ccc1F", "Potency": "inconclusive: 70.8 µM [inhibitor, single point]"}
{"molecule": "CC(C)C[C@@H]1N[C@H](C(=O)N2CCOCC2)Cc2cn(Cc3ccccn3)c3cccc1c23", "Potency": "inconclusive: 22.4 µM [inhibitor, full curve]"}
{"molecule": "COc1ccc(NC(=O)N[C@H]2C[C@@H](c3nc(-c4ccc(F)cc4)no3)N(C)C2)cc1", "Potency": "inconclusive: 126 µM [inhibitor, single point]"}
{"molecule": "Cc1cccc(OCC(=O)N2CCC[C@H]2c2nc(-c3ccc(F)cc3)no2)c1", "Potency": "inconclusive: 50.1 µM [inhibitor, single point]"}
{"molecule": "O=C(c1ccc2cc[nH]c2c1)N1CCC2(CC1)N=C(c1ccc(Cl)cc1)NO2", "Potency": "inconclusive: 50.1 µM [inhibitor, partial curve, poor fit]"}
{"molecule": "CC1=C[C@@H](CC#N)[C@H](C(C)C)C[C@H]1CC(=O)N1CCN(CCO)CC1", "activity change, negative = cytotoxicity": "inactive: -17.5% [at 174 µM]"}
{"molecule": "Cc1cccc(NC(=O)N2CCC3(CC2)CC(N(C(=O)NC(C)C)C2CC2)CCO3)c1", "note": "(stereo not drawn)", "Potency": "inconclusive: 79.4 µM [inhibitor, partial curve, poor fit]"}
{"molecule": "O=C(c1ccc(Cl)cc1)N1CCc2c(n(Cc3cccnc3)n(-c3ccccc3)c2=O)C1", "Potency": "inconclusive: 50.1 µM [inhibitor, partial curve, poor fit]"}
{"molecule": "Cc1c(Cl)cccc1NC(=O)N(C)CC1CCOCC1", "outcome": "inactive"}
{"molecule": "COc1ccc(CN2Cc3[nH]nc(-c4cccc(O)c4)c3CC2=O)cc1", "Potency": "active: 10 µM"}
{"molecule": "COc1ccc(CN2CCOC[C@H]2c2ncc(C(C)(C)C)[nH]2)cc1", "activity change, negative = cytotoxicity": "inactive: -15.5% [at 138 µM]"}
{"molecule": "Cc1ccc(OCC(=O)N2CCC3(CC2)N=C(c2ccc(C)cc2)NO3)cc1", "Potency": "inconclusive: 50.1 µM [inhibitor, single point]"}
{"molecule": "CC(=O)Nc1ccc(CN2C[C@H](O)C[C@H]2c2nc(-c3ccc(OC(F)(F)F)cc3)no2)cc1", "Potency": "inconclusive: 56.2 µM [inhibitor, partial curve, poor fit]"}
{"molecule": "CCOC(=O)C1(Cc2ccccc2F)CCCN(C(=O)c2cccc(-n3cccn3)c2)C1", "note": "(stereo not drawn)", "Potency": "inconclusive: 35.5 µM [inhibitor, partial curve, poor fit]"}
{"molecule": "COc1ccc(-c2noc([C@@H]3CCCN3Cc3ccccc3OC)n2)cn1", "Potency": "inconclusive: 100 µM [inhibitor, partial curve, poor fit]"}
{"molecule": "CCOc1ccccc1CN1CCC2(CCN(C(=O)OC)CC2)Oc2ccccc21", "Potency": "inconclusive: 50.1 µM [inhibitor, partial curve, poor fit]"}
{"molecule": "COCCNC(=O)c1ccc(CC2CCN(C(=O)c3n[nH]c(=O)c4ccccc34)CC2)cc1", "activity change, negative = cytotoxicity": "inactive: -17.1%"}
{"molecule": "CCOc1ccccc1NC(=O)NCC(=O)N1CCCCCNC(=O)CC1c1ccccc1", "note": "(stereo not drawn)", "activity change, negative = cytotoxicity": "inactive: 1.51%"}
{"molecule": "O=[S+]([O-])(c1ccncc1)c1nnn2c1nc(N1CCC(F)CC1)c1ccccc12", "Potency": "inconclusive: 11.2 µM [inhibitor, partial curve, poor fit]"}
{"molecule": "O=C1Nc2ccc(Br)cc2C(=O)N2CC[C@H](NS(=O)(=O)c3cccs3)C[C@@H]12", "Potency": "inconclusive: 50.1 µM [inhibitor, partial curve, poor fit]"}
{"molecule": "COc1ccc(F)cc1-c1ccc(CN2CCC(N[S+](C)(=O)[O-])C2)cc1", "note": "(stereo not drawn)", "Potency": "inconclusive: 22.4 µM [inhibitor, full curve, poor fit]"}
{"molecule": "CCc1nc2c(c(-c3ccc(Cl)cc3)n1)CN(C(=O)Nc1ccc(Cl)cc1)CC2", "Potency": "inconclusive: 39.8 µM [inhibitor, partial curve, poor fit]"}
{"molecule": "CCN(CC)C(=O)N1CC(Oc2cccc(-c3nc(C)no3)c2)C1", "activity change, negative = cytotoxicity": "inactive: -16.1%"}
{"molecule": "CCc1nc2c(c(-c3ccc(Cl)cc3)n1)CCN(Cc1ccccc1)CC2", "activity change, negative = cytotoxicity": "inactive: -29.1%"}
{"molecule": "CC(C)c1nnc(C2CN(C(=O)c3cccc(Br)c3)CC23CCOCC3)o1", "note": "(stereo not drawn)", "activity change, negative = cytotoxicity": "inactive: -14.4%"}
{"molecule": "COCCCNC(=O)C1CCN(c2ccnc3ccnn23)CC1", "activity change, negative = cytotoxicity": "inactive: -26.6% [at 138 µM]"}
{"molecule": "COc1ccc(-c2c(C(=O)NCC(F)(F)F)nc3sccn23)cc1", "activity change, negative = cytotoxicity": "inactive: -15.6% [at 138 µM]"}
{"molecule": "COc1ccc(-c2noc(-c3cccn3CC(=O)Nc3ccc4c(c3)CCC4)n2)cc1F", "activity change, negative = cytotoxicity": "inactive: -15.1%"}
{"molecule": "Cc1cc(CN2CCOc3c(O)cc(-c4ccccc4C)cc3C2)on1", "Potency": "inconclusive: 89.1 µM [inhibitor, single point]"}
{"molecule": "Cc1noc(C)c1Cn1cc2c3c(cccc31)[C@H](CC(C)C)N[C@H](C(=O)NC1CCC1)C2", "Potency": "inconclusive: 50.1 µM [inhibitor, full curve, poor fit]"}
{"molecule": "CC(C)N1C(=O)C2(CCCC2)C1C(=O)N1CCC(N2CCCCC2)CC1", "note": "(stereo not drawn)", "activity change, negative = cytotoxicity": "inactive: 1.27%"}
{"molecule": "CS(=O)(=O)c1ccc(CN2CCOC(c3cccnc3)C2)cc1", "note": "(stereo not drawn)", "activity change, negative = cytotoxicity": "inactive: 1.91%"}
{"molecule": "COc1ccc(Nc2ccnc(N3CCC(C(=O)NC(C)C)CC3)n2)cc1", "Potency": "inconclusive: 44.7 µM [inhibitor, partial curve, poor fit]"}
{"molecule": "COc1ccc(CN2Cc3[nH]cnc3C[C@H]2C(=O)NCc2ccccc2)c2ccccc12", "Potency": "inconclusive: 56.2 µM [inhibitor, partial curve, poor fit]"}
{"molecule": "COCCOCC(=O)N1CCC2(CC1)C(OC)C(=O)N2c1cccc(F)c1", "note": "(stereo not drawn)", "Potency": "inconclusive: 44.7 µM [inhibitor, partial curve, poor fit]"}
{"molecule": "CC(C)(C#N)c1ccc(-c2cc(CO)ccn2)cc1", "Potency": "inconclusive: 56.2 µM [inhibitor, partial curve, poor fit]"}
{"molecule": "COCCn1c(=O)c(C(=O)NCCc2ccccc2)nc2cccnc21", "activity change, negative = cytotoxicity": "inactive: -21.8% [at 138 µM]"}
{"molecule": "CC(C)C(=O)N1CCC(N2C(=O)C3(CCCC3)C2c2ccccc2)CC1", "note": "(stereo not drawn)", "Potency": "inconclusive: 44.7 µM [inhibitor, partial curve, poor fit]"}
{"molecule": "O=C1NCC2(CCN(Cc3ccccc3)CC2)Oc2ccccc21", "activity change, negative = cytotoxicity": "inactive: -11.7%"}
{"molecule": "CC(C)CN(CC1CN(C(=O)c2ccc(Cl)c(Cl)c2)CCO1)C(=O)c1cccc(F)c1", "note": "(stereo not drawn)", "Potency": "inconclusive: 50.1 µM [inhibitor, partial curve, poor fit]"}
{"molecule": "O=C(c1cccc(Cl)c1)N1CCN(C(=O)c2nnn3c2COC(c2ccc(Cl)cc2)C3)CC1", "note": "(stereo not drawn)", "Potency": "inconclusive: 50.1 µM [inhibitor, partial curve, poor fit]"}
{"molecule": "CCO[C@H]1CN(C(=O)CCc2ccc(-c3ccc(Cl)cc3)[nH]2)C[C@@H]1O", "Potency": "inconclusive: 50.1 µM [inhibitor, partial curve, poor fit]"}
{"molecule": "COCCC1(NC(=O)C(C)c2ccccc2)CCN(S(C)(=O)=O)CC1", "note": "(stereo not drawn)", "activity change, negative = cytotoxicity": "inactive: -18.2%"}
{"molecule": "O=C(c1ccccc1Cl)N1CCC(N(Cc2ccccc2)C2CCOCC2)CC1", "Potency": "inconclusive: 50.1 µM [inhibitor, partial curve, poor fit]"}
{"molecule": "Cc1nc(N2CCCCC2)n(CC(=O)Nc2ccc(F)cc2)c(=O)c1C", "Potency": "inconclusive: 70.8 µM [inhibitor, single point]"}
{"molecule": "COc1cccc(C(=O)N2CCN(c3cc(-c4cccs4)[nH]n3)CC2)c1OC", "Potency": "inconclusive: 31.6 µM [inhibitor, full curve, poor fit]"}
{"molecule": "CC(=O)Nc1cccc(-c2cc(C3=CCOCC3)c3cncn3c2)c1", "Potency": "inconclusive: 100 µM [inhibitor, partial curve, poor fit]"}
